Assay results published in PubChem BioAssay AID1508624 (National Center for Advancing Translational Sciences (NCATS), 2021).
Screen size: about 48,000 compounds; about 120 (0.25%) were called active. About 4% were inconclusive and are not listed. Calls come from the whole dose curve; as a rule, active = well fitted activation curve with a large enough effect; inconclusive = small, poorly fitted or top-dose-only effect, or another doubt; inactive = no such curve, though single readings can be large or run the other way. The list shows a part of the results.

test: Primary qHTS for Identification of Small Molecule Activators of Huntingtin-Antisense Promoter Activity; settings: HEK293 HTT-AS promoter firefly luciferase reporter, 24 h; series mostly up to 57.5 µM; activity change, positive = activation: at the top concentration; note: nearly all actives have a fitted effect of over 55% in size
How it was run: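 HEK293 Fluc reporter, 2,500 cells/well, 24 h pre-culture; cpds up to 57.5 uM final, 24 h 37 degrees C; Dual-Glo, 10 min RT; normalized vehicle = 0%, zero RLU = -100%.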

Activity change, positive = activation, inactive:
NC(=O)c1ccccc1NC(=O)Cn1nc(Cc2cccnc2)c2ccccc2c1=O -23%
COc1ccc(CNC(=O)c2ccc(-c3nc(CSc4ccccc4)c(C)o3)cc2)c(OC)c1 12%
CC(=O)c1cccc(NC(=O)c2cc3nc(-c4ccc(Br)cc4)cc(C(F)(F)F)n3n2)c1 -33.9%
N#Cc1c[nH]n2c(NC3CCCCC3)c(-c3cccc(Cl)c3)nc12 36.9%
Cc1ccc(-c2nc(C)c(CCNC(=O)C(=O)Nc3ccc4c(c3)OCO4)s2)cc1 6.37%
COc1ccc(CCN2C(=O)N(c3ccccc3)C(=O)C2CC(=O)Nc2ccccc2)cc1 (centres undefined) -0.406%
CCOC(=O)C1CCN(CCC(=O)Nc2ccc(OC)cc2)CC1 -24.4%
CCCN1C(=O)C2(c3ccccc31)c1c(oc3ccc(C)cc3c1=O)C(=O)N2CCOC (centres undefined) -10.4%
O=C(Nc1ccc(Cl)cc1)Nc1ccc(Cl)c(C(F)(F)F)c1 -66.6%
Cc1nc(N2CCOCC2)c2c(C(=O)N3CCN(c4cccc(C)c4C)CC3)c(C)oc2n1 -16.6%
COc1cc(C(=O)N2CC(=O)Nc3ccc(C)cc3C2c2ccc(F)cc2)cc(OC)c1OC (centres undefined) 2.28%
Cc1cccc(NC(=O)CSc2nc3c(oc4ccccc43)c(=O)n2-c2ccc(F)cc2)c1 -21.1%
COc1ccc2c(CNCCc3ccccc3)c(C(=O)O)n(Cc3cccc(F)c3)c2c1 -32%
COc1ccc(Nc2cc(C(=O)NCc3ccccc3)c3ccccc3n2)c(OC)c1 16.1%
O=S(=O)(c1ccc2nc(N3CCN(c4ccccc4)CC3)ccc2c1)N1CCCCC1 -16.3%
CCOc1ccc(-c2cn3c(n2)sc2cc(C(=O)NC4CCCc5ccccc54)ccc23)cc1 (centres undefined) 5.48%
N#CC(=C(N)Sc1ccccc1N)C(C#N)=C(N)Sc1ccccc1N -30.7%
Cc1ccc(NC(=O)CC(C)S(=O)(=O)c2ccc3c(c2)NC(=O)CO3)cc1C (centres undefined) -1.72%
COc1ccc(NC(=O)c2cn3c4c(ccc(Cl)c4c2=O)OC(C)C3)cc1OC (centres undefined) -19.3%
CSc1ncc(C(=O)Nc2ccc(C(C)=O)cc2)c(-c2ccccc2)n1 26.9%
CCOc1ccc2nc(NC(=O)c3cc(=O)c4cc(C)cc(C)c4o3)sc2c1 19.4%
COc1ccc(N(Cc2cccs2)C(=O)COc2cc(C)c(Cl)c(C)c2)cc1 -34.1%
Cc1cccc(NC(=O)Cc2ccc(-n3c(C)nc4cccnc43)cc2)c1C -27.7%
O=c1c2cnn(-c3ccc(F)cc3)c2ncn1Cc1ccc(F)cc1 -19.7%
COc1ccc(Cl)cc1NC(=O)Cn1cc2c(n1)CCC(C)C2 (centres undefined) -13.1%
Cc1cc(-c2ccc(S(=O)(=O)Nc3ccc(Br)c(C)c3)s2)on1 -35.1%
CSc1nnc2[nH]c(=O)cc(C)n12 -0.949%
COc1ccc(CNC(=O)C2Cc3cc(S(=O)(=O)N4CCCCCC4)ccc3N2C(C)=O)cc1 (centres undefined) -2.01%
CC(=O)c1ccc(N2CCN(C(=O)c3ccc(Cn4c(=O)[nH]c5ccccc5c4=O)cc3)CC2)cc1 -24%
CC(C)c1ccc(NC(=O)C2(C)Cc3ccccc3C(=O)O2)cc1 (centres undefined) 26%
CN1c2cc(O)c(N=NC(N)=O)cc2CC1S(=O)(=O)O (centres undefined) -15.9%
Cc1ccc2c(c1)-c1c(cnn1CC(=O)N1CCN(c3cc(Cl)ccc3C)CC1)CO2 -9.54%
CC(C)C(NS(=O)(=O)c1cccc2cccnc12)C(=O)Nc1ccc(OC(F)(F)F)cc1 (centres undefined) -17.3%
O=C(c1ccccc1)c1ccc2nc(Nc3cc(Cl)ccc3O)c3nncn3c2c1 -19.1%
Cc1cc(C)c(NC(=O)CCC(=O)N2Cc3ccccc3Oc3ncccc32)c(C)c1 -19.5%
COC(=O)c1ccccc1NC(=O)Cn1c(=O)n(CCCC(=O)NCCc2ccc(OC)c(OC)c2)c(=O)c2ccccc21 -18.5%
Cc1ccc(C)c(NC(=O)NCc2ccc3c(c2)CCN3C(=O)c2ccccc2)c1 -27.1%
COc1ccc(Nc2cc(C)c3cc(NC(=O)c4cc(OC)cc(OC)c4)ccc3n2)cc1 -45.4%
CCCOc1ccc(C2c3c(oc4ccccc4c3=O)C(=O)N2c2nc(C)c(C(=O)OCC)s2)cc1 (centres undefined) 5.77% [at 11.5 µM, percent change from vehicle, -100% = no light]
COc1ccc(S(=O)(=O)NCc2ccc(C(=O)NCc3ccccc3)cc2)cc1 -11.1%
CC(C)(N)c1ccc(-c2nc3ccccc3nc2-c2ccccc2)cc1 -17.9%
COc1cc2ncn(-c3cc(OCc4ccccc4C(F)(F)F)c(C(N)=O)s3)c2cc1OC 22.9%
O=C(NCC(c1ccccc1)c1ccccc1)c1nn(-c2ccccc2Cl)nc1CO -44.3%
CCOc1ccccc1NC(=O)c1sc(-n2nc(C)c(CCC(C)C)c2C)nc1C -12.7%
Cc1ccc(Cl)cc1N1CCN(C(=O)c2ccc3c(c2)N(Cc2ccccc2F)C(=O)c2ccccc2S3(=O)=O)CC1 -12.7%
Cc1nc2c(C(=O)N(C)Cc3ccccc3)c[nH]n2c(=O)c1Cc1ccc(Cl)cc1 -44.5%
CCCCOc1ccc(S(=O)(=O)N2CCN(c3ccccc3OCC)CC2)cc1 -3.65%
COc1ccc(Cl)cc1NC(=O)CN(C)S(=O)(=O)c1ccc(Br)s1 -30%
CCC1CCCCN1CCCNC(=O)CN1C(=O)CSc2ccc(S(=O)(=O)N3CCC(C)CC3)cc21 (centres undefined) -9.63%
Cc1cc(C)c2oc(-c3cccc(NC(=O)c4ccco4)c3)nc2c1 -9.62%
COCCCNC(=O)CCC(=O)N1Cc2ccccc2Oc2ncccc21 -3.76%
Cc1cc2c(c3oc(=O)c4ccccc4c13)CN(Cc1ccc(F)cc1)CO2 -16.9%
O=C(Nc1cccc(Cl)c1)Nc1ccccc1OCc1cc(=O)n2ccccc2n1 8.72%
C#CCN[C@@H]1CCc2ccccc21
O=S(=O)(c1ccc2[nH]c3c(c2c1)CCCCC3)N1CCN(c2ccccc2)CC1 -29.9%
CCOc1ccc(NS(=O)(=O)c2ccc(N)cc2)nn1 -3.39%
Cc1ccc(N2CCN(C(=O)CCc3c(C)nc4c(c3C)c(=O)n(C)c(=O)n4C)CC2)c(C)c1 -19.6%
O=C(CCn1cnc2ccccc2c1=O)NCc1ccccc1 -9.32%
CC(=O)C1=C(c2ccc(Cl)c(Cl)c2)N(C(C)=O)n2c(C)nnc2S1 -20.8%
Cc1cccc(C)c1NC(=O)c1oc2c(c1C)-c1nn(Cc3ccccc3)cc1CC2 -50.3%
CCCSCCCNC(=O)CN1C(=O)COc2ccc(S(=O)(=O)N3CCC(C)CC3)cc21 -20.6%
CN1C(=O)Cc2cc(S(=O)(=O)CCC(=O)Nc3ccccc3)ccc21 -13.8%
CCN(CC)CCCNC(=O)Cn1nc(N2CCN(c3ccccc3OC)CC2)ccc1=O -12.6%
COc1cc(OC)c(N(C)C(=O)c2nn(C)c3c2CSc2ccccc2-3)cc1Cl 6.32%
CCOC(=O)c1c(C)[nH]c(C)c1S(=O)(=O)N1CCCC(C(=O)Nc2ccc(OC)c(Cl)c2)C1 (centres undefined) -5.33%
COc1cc(OC2CCN(C)CC2)ccc1Nc1ncc2c(n1)n(C1CCCC1)c(=O)n2C -24.6%
O=C(Cn1ncc2c3ccccc3n(Cc3ccccc3F)c2c1=O)NCCc1ccc(Cl)cc1 -2.89%
COc1cccc(CNC(=O)CSc2c3c(nc4ccc(Cl)cc24)CCCC3)c1OC -31.1%
CC1=C(C(=O)Nc2ccc(C)cc2C)C(c2ccc(Cl)cc2)n2nc(C(=O)OC(C)C)nc2N1 (centres undefined) -22.2%
O=C(Cn1cnc(S(=O)(=O)N2CCCC2)c1)Nc1ccc(OC(F)(F)F)cc1 -11%
Cc1ccccc1Nc1nnc(-c2ccc(C)c(S(=O)(=O)N3CCOCC3)c2)c2ccccc12 3.05%
CN1CCN(c2ncc(-c3cc(Cl)cc(Cl)c3Cl)c(N)n2)CC1 -29.6%
COc1ccc(CN2COc3ccc4c(-c5ccccc5)cc(=O)oc4c3C2)cc1 -9.56%
Cc1cccc(N2CCN(C(=O)C3CCN(S(=O)(=O)c4cccs4)CC3)CC2)c1C -18.7%
COc1ccc(OC)c(NC(=O)Cn2cnc3c(oc4ccccc43)c2=O)c1 18.2%
C1COC(NC(C2CC2)C2CC2)=N1
CN(C)c1ccc(CNC(=O)CN(C)S(=O)(=O)c2ccc3c(c2)c(=O)n(C)c(=O)n3C)cc1 -11%
Cc1ccc(CNC(=O)Cn2ccn(-c3ccc(C)c(C)c3)c(=O)c2=O)cc1 18.5%
Cc1ccc(CNC(=O)CN(c2ccc(Cl)cc2Cl)S(=O)(=O)c2ccccc2)cc1 -25.2%
COc1cccc(C(=O)Nc2c(C(=O)NC(C)(C)C)oc3ccccc23)c1 -3.15%
CCc1cccc2sc(N3CCN(C(=O)c4cc5ccccc5cc4OC)CC3)nc12 -29.2%
Cc1ccc(CCNC(=O)Cn2c(-c3cccs3)cc3cc(F)ccc32)cc1 -12.3%
CCc1cccc(NC(=O)Cn2c(=O)n(CCc3ccc(OC)c(OC)c3)c(=O)c3ccccc32)c1 -18.5%
COc1ccc(CC(=O)NCc2ccc3c(c2)CCN3C(=O)c2ccc(C)cc2)cc1OC -33.2%
O=C(Cn1ncc2c(=O)oc3ccccc3c21)NCc1ccccc1Cl -3.85%
Cc1ccc2oc(C(=O)N(Cc3cccc(F)c3)C3CCS(=O)(=O)C3)c(C)c2c1 (centres undefined) -17.7%
COc1ccc(N2CCN(C(=O)c3cc(S(=O)(=O)N4CCCCCC4)cn3C)CC2)cc1 -11.3%
O=C(NCc1ccccc1Cl)C1CCC(CNS(=O)(=O)c2ccc(Cl)cc2)CC1 (centres undefined) -5.5%
COc1ccc(-c2cc(=S)ss2)cc1 29.5%
COc1cccc(NC(=O)N2CCC(n3c(C)nc4cccnc43)CC2)c1 -6.13%
COc1cccc(Cn2c(=O)n(-c3ccc(C)c(F)c3)c(=O)c3sc4ccccc4c32)c1 -10.9%
COc1ccc(CNC(=O)C2CCN(Cc3nc(-c4ccc(OC)c(OC)c4)oc3C)CC2)cc1 -5.23%
Cc1ccc(-c2cc(C(F)(F)F)n3nc(-c4ccc(Cl)cc4)cc3n2)cc1 -3.52% [at 11.5 µM, percent change from vehicle, -100% = no light]
COc1cccc(OC)c1C(=O)Nc1nnc(C)s1 21%
